# Some of the results follow.
# Tested on: PfHDP1 homeodomain (GST-tagged)
# Experiment: gcPBM binding intensity (ln(normalized median fluorescence intensity)); higher = stronger DNA binding
# Procedure, shortened: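 The highest Masliner-normalised natural-log median intensity across replicate spots of either probe orientation is reported as binding intensity. GST-tagged P. falciparum DNA-binding domains expressed in E. coli were applied for 1 h to an Agilent 4 × 180k array of primer-extended double-stranded 36-bp intergenic genomic probes plus negative controls, and bound protein was detected with Alexa488 anti-GST antibody and scanned at 488 nm.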
row,Sequence,gcPBM binding intensity (ln)
1,TTTTTTTTTTTGTATCGTACATTTATAATGTTTATA [XGTACX_site6804],6.47
2,CATACACAAGAAAATTCACACACACCCATATATATA [CACACA_site9288],6.91
3,TCTTACAAAAAACAAACAGAGAAAAATATAAGGAAA [XGTACX_negctrl_site520],6.79
4,AACATACAGAAACACACACACACACCCACACCCACA [CACACA_site493],6.59
5,TTTTTTTCATATAACACACACACAAAAATAATGTGG [CACACA_site3688],6.7
6,TAAACATTGTAAAGGAGTACAAAATTTTTTTTATGA [XGTACX_site7757],6.27
7,AATAATAAAAAATACACACACATATATATATATTAC [CACACA_site3464],6.82
8,GGAAACACGATATATACACACATATTTATATTTATA [CACACA_site6250],6.68
9,AGAAAAGGAAAATAAACATGCAAAAATAATATTAAA [TGCATGCA_site337],6.75
10,ATGTTGTTATAAAGAGTGCAACGTATATGTATCCTT [GTGCAC_site9935],7.25
11,TCCAAATAAATATATTGTACAGAATTATTGATACCT [XGTACX_site327],6.24
12,TGTAATAATTATTGCACGCACACAAAAACCTATAGA [CACACA_site2932],10.2
13,TAAGGTTCATTAAAGTGTACACATAAATACCGTAAC [XGTACX_site8212],6.83
14,ATTCTGAATGTTATGCGTACATATTAATCCTATTTA [XGTACX_site1216],6.45
15,AAGTAAATATAATAAGGTACACATAAATAAATAAAT [XGTACX_site1740],6.72
16,TTCTTTTAAAGGTATACATGCGCATGGATTTTTCAT [TGCATGCA_site223],7.51
17,ATGTCTTTGAAAAAAAGTACTTAAAATTATAAAAAT [XGTACX_site147],6.52
18,ACTGTCGTTTTAAAGAGTACATAAAATATTAAATTA [XGTACX_site3589],6.06
19,AAAACTATTAATGCAAAAAATAAAATATAATAATAA [XGTACX_negctrl_site524],6.99
20,TCAAAGCACAGATACACACACATATATATATATATA [CACACA_site287],9.31
21,AATTAAAAAATTATCACACATATATATATATATATA [CACACA_site5789],9.53
22,TATATACCACATTGTTGTACGACACATTTACATTTT [XGTACX_site8370],7.13

row,Sequence,gcPBM binding intensity (ln)
1,TACAAATATAGACACACACACATATATATATATATA [CACACA_site585],9.43
2,ATAAAAAAATAAAACACACACATATAGATTATAGAT [CACACA_site7343],7
3,TAATTTGAAAAATTGTGTACTCATAAAATAAATAAA [XGTACX_site2138],6.55
4,GATTTATATATATAAAATAATTGAATATTTTCTTTT [CACACA_negctrl_site801],6.05
5,TTTATTTTTCATAATTGTACAAAAATAAATGGAAAC [XGTACX_site5144],6.9
6,ATAGATGATATACGTAAACACACAAATAAAAAAAAT [CACACA_site9095],6.97
7,TTTTCTTACTATTGTAGTACAATATTATATTCTTTT [XGTACX_site1925],7.09
8,TATAAATATGTATATACACACTTTTAATATTCATAA [CACACA_site7856],6.57
9,TGCGTATTCTTATTAGGTACACATATTCGTGATAAT [XGTACX_site5681],6.13
10,CATATATCATAAATATGTACGAAATAAAAGAATCAT [XGTACX_site942],6.85
11,TTTTCTAAAATATTCATAATAAATCAAAAAAAAAAA [GTGCAC_negctrl_site320],6.36
12,ATAAAAGGAATATTTGCATGTGGTAGTACATAACAT [TGCATGCA_site978],7.02
13,TAATATTTTTATTATTAGAATTGTATATGTTTAATA [CACACA_negctrl_site1833],5.88
14,TACATATATATATGTATATATATATATATATAAATA [XGTACX_negctrl_site351],6.85
15,ACATAACTGATATATACACACAATACAAATATAGAT [CACACA_site7328],6.85
16,AAATGTGCATTATGTTGTACAGTCGAAATTTTTTTT [XGTACX_site3812],10.4
17,ATGAATAAATGAACATGTACATATATATATATATTA [XGTACX_site5005],6.64
18,TTAACAAAATATAGCACACATAAATATATATTTATG [CACACA_site351],6.83
19,TAAAAAATTAATAAAGTGCATAAATATTACAATATT,7.68
20,TTTTCTAAATATTATAGTACTCTTAATAATATTAAC [XGTACX_site4222],6.4
21,GACATATTAGAAGGGTGTACATACTTTTAATCATTT [XGTACX_site1698],6.45
22,AATATTAAAATATAAACACACAAAATTCAATTATAT [CACACA_site5971],6.43

row,Sequence,gcPBM binding intensity (ln)
1,ATTCATATATTTATTGCATGCAAAGTAAAATAAATA [TGCATGCA_site307],7.16
2,ATTATATATAAATATACACACATATATAAAATACAT [CACACA_site5298],6.57
3,TACATACAGATATATACACACATATAAAATATAGAT [CACACA_site6319],6.64
4,AAGAGAAAAATATGGTTGCACTAAAAATATATATTT,8.26
5,AAATTAAAAAGAGCTTGTACAGATGTATACATAATA [XGTACX_site3882],6.86
6,TATATGAAGCTATAGACACACATATAAAAATAGAAT [CACACA_site1313],6.78
7,AATTTATATGTTTTGTGTACACAATTTATTAAATTA [XGTACX_site6448],7.22
8,TTTATAATTCTTACAACACACAATGTACATTTATAT [CACACA_site1261],6.78
9,TAATATTATTATTTTACACACTTTTTTCCTTTTATC [CACACA_site2457],6.61
10,AAAGAATTTAAATATTGTACGCAATATATAAAAAAA [XGTACX_site7616],6.4
11,TTTGATAAAATTGATATCCTATAATTATATAAATAA [GTGCAC_negctrl_site317],6.01
12,AAAAAACAGACATACACACACACACCCATATATATA [CACACA_site3392],6.87
13,GATAAAATAAAAGTGGGTACTTAAATATATATATAA [XGTACX_site8457],6.43
14,ATAATATTATACTTTGCACACATCTGAAATGACATA [CACACA_site3952],10.4
15,AAAAGTACAATATATATGTATGTGTATAGAATGGTT [TGCATGCA_negctrl_site76],7.28
16,TACAATTTGATATATACACACAAATAAATTATGCTT [CACACA_site6534],6.67
17,AGAAAAGAAATTAGTTGTACTCTGATGAATTATCCT [XGTACX_site6284],6.06
18,TAATAATAGTGAGAGTGTACTTTAAATAAAATATAT [XGTACX_site2850],6.52
19,TTCTATATATATATAGACAAACGATAAAATAAAAAA [GTGCAC_negctrl_site142],6.66
20,TACCCAAAGTTACATACACACTAATATTTACACCAT [CACACA_site4709],6.88
21,GATGTTCATCACTACACACACAAAGAAATATAAATA [CACACA_site7294],6.57
22,ATATGAAGTTATATAGTGCACATGTACAACCAAATC [GTGCAC_site9974],9.89

row,Sequence,gcPBM binding intensity (ln)
1,TGACTTTTTTTTTTTTTTTTTTTTTTTTATCTTTTT [CACACA_negctrl_site481],5.88
2,TTATGATTATAACGTTTTGACATTAGGCATATATAT [CACACA_negctrl_site1396],6.45
3,TGAAATGATATATAAACACACATATATAAATATGTA [CACACA_site7616],6.08
4,AAATATAATTTGCGATGTACACATATATATTTATTT [XGTACX_site1568],6.43
5,CAGTTATTTTAATGTGGTACACAATTTTAAAATTAT [XGTACX_site8571],6.39
6,AAGAAAAAAAAAAAAAAAAAAAAAAAAAATTTATGA [TGCATGCA_negctrl_site294],5.71
7,AATTTTATAAAAAGTAGTACATATCAAACACCTTGA [XGTACX_site2297],6.63
8,ATATAAAATGAACATAGTACTTTTTATATATTTTAA [XGTACX_site7461],5.84
9,TACCTATACCTATACACACACACACGGAAATAAATA [CACACA_site6750],7.17
10,AAAAAAAAAAAAAGTACACACTTTTGCGTACAAGTA [CACACA_site5672],6.42
11,TATTTATTATATAAATGTACATAATATATGTATGTC [XGTACX_site2815],6.41
12,TGATGGGACATAAATATTGAGATGATCATAAGATAA [TGCATGCA_negctrl_site276],6.8
13,TATATCATAAAAAATTGTACATATATATATTATATA [XGTACX_site6726],6.45
14,AAAGATAATATATGCACACATATAAATATATAAATA [CACACA_site3477],10
15,GTGTAATTTATTGTGTTGCACTTTTTTTTTTTTTTT [GTGCAC_site9644],7.52
16,AATACAATTTTTAACACACACACAATAATACAGATA [CACACA_site4823],6.98
17,TTAATATAGGAATATGCACACATATATACATACATA [CACACA_site8432],9.95
18,AAGATAGACTCATATGCATGCATTCACATACCAACA [TGCATGCA_site179],7.37
19,GGATAAGATGTATATACACACAATTTAAAAAAATAA [CACACA_site910],6.66
20,ATAAAATAATTAATGGGTACATAATTAAATAAAGAG [XGTACX_site3309],6.97
21,TTTTAAAAAAAAAAAAAAAAAATTAAAATAATTCAA [TGCATGCA_negctrl_site69],5.45
22,AATGTGCCCACGCGTACACACAAAAAAAGAAAAAAA [CACACA_site2003],6

# From the supplement of paper PMC11417369
